# Measured values as given in PubChem BioAssay AID904 (National Center for Advancing Translational Sciences (NCATS), 2007).
# Among all 55,000 compounds or so, about 530 (0.96%) were called active. Inconclusive means that the source gave no clear call. Such entries were picked first, then a sample of the others. The call rests on the fitted dose curve; in most records, active means well fitted cell-killing curve with a large enough effect; inconclusive means small, poorly fitted or top-dose-only effect; inactive means no such curve, though single readings can be large or run the other way. Potencies beside an inconclusive call are fits to weak or partial responses and may not hold up.
# Experiment: qHTS Screen for Compounds that Selectively Target Cancer Cells with p53 Mutations: Cytotoxicity of p53 Null Cells at the Nonpermissive Temperature; further: nearly all actives have a fitted effect of over 50% in size;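 on activity, negative = cell killing: 0% = DMSO only and -100% = full killing by 100 µM tamoxifen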
# Details: H1299 p53-null (neo) cells, 39C, ATPlite viability, 24 h; activity, negative = cell killing: at 46.1 µM (top of the series)
# Procedure, shortened: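 Concentration-response (up to 46 uM) was run for 24 h at the nonpermissive 39C on H1299-p53A138V or H1299-neo cells. ATP content was measured with ATPlite luminescence. AC50 values were Hill-modeled after normalizing between DMSO and 100 uM tamoxifen killing.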
# Potency means the concentration at half of the fitted maximal effect; tags describe the fitted curve by direction and shape.
SMILES,Potency,"activity, negative = cell killing"
O=C(NCc1ccc(F)cc1)c1ccc(Cn2c(SCc3ccc(F)cc3)nc3cccnc32)cc1,"inconclusive: 0.251 µM [cytotoxic, full curve, poor fit]",
C#CCSc1nc(-c2ccccc2)c2cc(Cl)ccc2n1,"inconclusive: 31.6 µM [cytotoxic, single point]",
COc1cccc(NC(CNS(=O)(=O)c2ccc(Cl)cc2)c2ccccc2)c1 (stereo not drawn),"inconclusive: 31.6 µM [cytotoxic, single point]",
CC1CCCN(S(=O)(=O)c2ccc(N3CCCCS3(=O)=O)cc2)C1 (stereo not drawn),inactive,
CCN1CCN(C(c2ccccc2F)c2c(O)cc(C)n(CCOC)c2=O)CC1 (stereo not drawn),"inconclusive: 0.0063 µM [cytotoxic, full curve, poor fit]",
C=CCc1ccc(OCc2ccc(C(=O)Nc3ccc(NC(C)=O)cc3)o2)c(OC)c1,"inconclusive: 10 µM [cytotoxic, partial curve]",
COc1ccc(CNC(=O)c2cccc(N3CCCS3(=O)=O)c2)cc1OC,"inconclusive: 1.26 µM [cytotoxic, full curve, poor fit]",
O=C(CSc1nc2c(c(=O)[nH]1)CN(Cc1ccc3c(c1)OCO3)CC2)Nc1ccc(F)cc1,"inconclusive: 1.58 µM [cytotoxic, partial curve]",
Cc1cccc(NC(=O)CSc2nc(C)c(Cc3ccccc3)c(=O)[nH]2)c1,inactive,
Cc1cc(C(=O)Nc2ccccn2)cs1,"inconclusive: 20 µM [cytotoxic, partial curve]",
CCOC(=O)c1c(C)oc2c(Cl)cc(NS(=O)(=O)c3ccc(Cl)c(C)c3)cc12,active: 5.01 µM,
NS(=O)(=O)c1ccc(CCNc2nc3c(-c4cccc(F)c4)nnn3c3ccc(Cl)cc23)cc1,"inconclusive: 15.8 µM [cytotoxic, single point]",
Cc1ccc(NC(=O)c2sc3nc(N)c(C#N)cc3c2N)cc1,,inactive: 9.07% [at 1.84 µM]
COc1ccc(CCNc2oc(COc3ccc(Cl)cc3)nc2C#N)cc1OC,"inconclusive: 22.4 µM [cytotoxic, single point]",
CCOCCCNC(=O)CCc1nnc2ccc(N3CCN(c4cccc(OC)c4)CC3)nn12,"inconclusive: 0.01 µM [cytotoxic, full curve, poor fit]",
Cc1ccc(NS(=O)(=O)c2ccc3c(c2)NC(=O)CCS3)c(Br)c1,inactive,
CC(C)OCCCN1C(=O)c2[nH]nc(-c3ccccc3O)c2C1c1ccc(OCc2ccccc2)cc1 (stereo not drawn),active: 12.6 µM,
COc1ccc(C(=O)NCC(c2cccs2)S(=O)(=O)c2ccc(C)cc2)cc1 (stereo not drawn),inactive,
